# Assay results reported in the supplement of paper PMC11417369.
# ± gives the standard deviation of the averaged measurements. This is one part of the list.
# Tested on: PfAP2-G AP2 domain (GST-tagged)
# Test: gcPBM binding intensity (ln(normalized median fluorescence intensity)); higher = stronger DNA binding
# Summary of the method: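 Binding of GST-tagged P. falciparum DNA-binding domains, expressed in E. coli and used at about 25 μg on average, was carried out for 1 h in 1× PBS containing 1% milk, 0.2 mg/ml BSA, 0.5% salmon testes DNA and 0.03% Triton X-100. The target was an Agilent 4 × 180k array of primer-extended double-stranded 36-bp intergenic genomic probes plus negative controls, read with Alexa488 anti-GST antibody at 488 nm. Binding intensity is the highest Masliner-normalised natural-log median intensity across replicate spots of either probe orientation.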
row,Sequence,gcPBM binding intensity (ln)
1,TGATTTCCAGGTTATTGTACAAAATTAATTTTCGAA [XGTACX_site2491],10.9 ± 0.54
2,AAAAGTTTTATTTAAATGAATTAATCTTTACTATAT [CACACA_negctrl_site282],9.47 ± 0.25
3,ATATATATAAAACACACACACAAAAAAAATAAAGAC [CACACA_site117],10.4 ± 0.22
4,TAAATAAATATATATACACACATATATATATATATA [CACACA_site598],10.2 ± 0.9
5,TAAATATTATTTCATAGTACTTTTATTATTGATATA [XGTACX_site5566],11 ± 0.62
6,TTTTGTAGTTTATAAATAAAAGAGAATATGGTGCTT [CACACA_negctrl_site413],9.93 ± 0.028
7,ATATAATATAACAATACGCACACGTATACAAAAAAA [CACACA_site3151],10.5 ± 0.42
8,CATATTGTCATTCTGGTGCACTTTTTTTTTTTTTTT,10.8 ± 0.45
9,ATGTAATCATTTTCGACTTTTTTTTTTTTTTTTTTT [CACACA_negctrl_site1132],10.6 ± 0.28
10,AGGAAATGTTTATATACATGCATAATTAAATATAAT [TGCATGCA_site672],9.7 ± 0.18
11,ATAAAATGCGCAAACACACACAAAAAAAAGATATAT [CACACA_site6875],10.12 ± 0.064
12,TTTTTAATTAATCTTATAAATATTTATAAATATATA [CACACA_negctrl_site1485],9.725 ± 0.092
13,ATTATATTTCAATTATGTACATATAAAATGAATAAA [XGTACX_site4204],11.3 ± 0.88
14,TTTTTTTTTTTTTTTTTTTTCTTCATTTAATTTATA [GTGCAC_negctrl_site17],9.54 ± 0.15
15,AATTTTCATTTTAGAAGTACACACAAAAAATAAAAT [XGTACX_site4426],11.7 ± 1.1
16,TACTTAATTATAAGGACATGCACAAAAGGAATTATT [TGCATGCA_site468],10.7 ± 0.38
17,TTTTCATGTTTTTTTCTTTATTTTTTTTTTTTTTTT [GTGCAC_negctrl_site511],9.97 ± 0.34
18,TTTTTTTATTATTATTGTACAAGGCCTTAGGTGATT [XGTACX_site5050],10.8 ± 0.69
19,TATTTACATATTTATATACACACTTTTGCGTGTCTG [CACACA_site1110],10.16 ± 0.042
20,TTTTGTAAAATTAATTTATTATACATATATATTTCT [GTGCAC_negctrl_site728],9.75 ± 0.085
21,TAATGTACTTAAACCGCACACATATAAAAAAATAAA [CACACA_site8926],11.3 ± 1.1
22,TTATTTTAATTTTTGGTGCATATTCAAGTGTACCTT [GTGCAC_site9791],10.8 ± 0.67

row,Sequence,gcPBM binding intensity (ln)
1,AATAAAAGGAATAATTGTACATAATGATTATACGTT [XGTACX_site7548],10.7 ± 0.32
2,AAATAAAATACAATATGATAAAATGTTATCATATAT [CACACA_negctrl_site538],9.655 ± 0.035
3,ATAAATAATATAAATACACACTAAAAAAGATATATA [CACACA_site6397],10.01 ± 0.014
4,GTTGTAAAAAGAAAATGTACGTAATAAATATATATA [XGTACX_site3081],11.3 ± 0.81
5,TATTTTTATTTATATACACACTTACATATTTATATT [CACACA_site7666],10.06 ± 0.078
6,AGAATTTATAAAAACTGTACATATTTTCCAGTTATA [XGTACX_site2848],11.2 ± 0.9
7,AATACTCCATTGTATAGTACATATATTTTTATTTAT [XGTACX_site3641],10.8 ± 0.44
8,AATAAAAAAAAAAATAATATATATGTATAAATATAT [CACACA_negctrl_site1561],9.49 ± 0.071
9,TTAAAAATGTTATAATGTACATATAATATTTTATGA [XGTACX_site5954],11.2 ± 0.6
10,TTGCACTCGTAAAAAGCACACATATAAAAACATTTA [CACACA_site7997],10.3 ± 0.35
11,ATTATAAATATAAATATAAATATATATTGTTCCGCA [TGCATGCA_negctrl_site470],9.49 ± 0.19
12,TTTATCCTTCTTTTGAGTACTCAAAGAGACCTATAA [XGTACX_site8050],11.4 ± 0.86
13,AAAAAAAACAGACACACACACAAATATTTATATATC [CACACA_site6342],10.2 ± 0.19
14,TATATATATATATATATATATATTTTTATTATATAT [XGTACX_negctrl_site89],9.85 ± 0.67
15,ATTATAAATAAAATATGTACATATGTATAAATACAT [XGTACX_site4002],11.3 ± 0.64
16,AAGAAAAAAAAAAAAAAAAAAAAAAAAAAAAAAAAA [TGCATGCA_negctrl_site263],9.565 ± 0.078
17,TTCTGTATATAGTGTGCACACAATTAAAAAAAAAAA [CACACA_site8400],10.7 ± 0.7
18,AAAACACATACTATATGTACATATAATAATTTATAT [XGTACX_site4525],11.2 ± 0.65
19,AAAAAAATTTTTAAAAGTACATTAATATTAATATGT [XGTACX_site5177],11.4 ± 0.7
20,ACATTACAATTATTATAATCAATATATAACCTCTAA [TGCATGCA_negctrl_site105],9.62 ± 0.28
21,TTTTAATTAAATACAAAAAAAAAAAAAAAAAAAAAA [CACACA_negctrl_site1631],9.54 ± 0.36
22,TTTACACTTTTTTTTGTACACACTAATAAGATTAAC [CACACA_site9304],11.4 ± 0.72
